Data reported in patent publication US20210238298A1 (ALLIGATOR BIOSCIENCE, published 2021).

T1: Human OX40 (R&D systems, #3358_OX) (human, UniProt P43489 29-216)
T1 construct: Bought; Several catalogue numbers are given for it; also called human OX40 (R&D Systems, 3388-OX); OX40-Fc (R&D systems, #3358_OX); not shown: Fc part
T1 sequence: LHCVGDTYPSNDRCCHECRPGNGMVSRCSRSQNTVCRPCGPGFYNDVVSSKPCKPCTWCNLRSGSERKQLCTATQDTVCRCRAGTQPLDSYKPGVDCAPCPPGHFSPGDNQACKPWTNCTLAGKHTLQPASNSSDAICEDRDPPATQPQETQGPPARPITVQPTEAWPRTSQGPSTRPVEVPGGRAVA


What was measured:
[1] = target: T1, Human OX40 (R&D systems, #3358_OX); assay: dual ELISA: OX40-Fc coated, bispecific molecule in dilutions, biotinylated CTLA-4 (1 ug/ml), HRP-streptavidin; the signal needs both bindings at once
Experimental: The ELISA plates were washed with PBST and then blocked with PBST+2% BSA for 1 h at room temperature and then washed again with PBST. […] SuperSignal Pico Luminescent was used as substrate and luminescence was measured using Fluostar Optima.

[2] = target: T1, Human OX40 (R&D systems, #3358_OX); assay: SPR (Biacore), immobilised human OX40
Experimental: Human OX40 (R&D systems, #3358_OX) was immobilized to the Biacore™ sensor chip, CM5, using conventional amine coupling. The tested antibodies and controls (serially diluted ⅓ or ½ 100-2 nM) were analyzed for binding in HBS-P (GE, #BR-1003-68) at a flow rate of […]. The association was followed for 3 minutes and the dissociation for 20 minutes. Regeneration was performed twice using 50 mM NaOH for 30 seconds. The kinetic parameters and the affinity constants were calculated using 1:1 Langmuir model with drifting baseline.

CTLA-4 (BMS, Orencia) [3] = target: T2, CTLA-4 (BMS, Orencia) (human, UniProt P16410 38-152); assay: cell-based or functional assay
CTLA-4 (BMS, Orencia) [4] = target: T2, CTLA-4 (BMS, Orencia); assay: cell-based or functional assay; remark: listed apart in the source
T2 sequence (P16410 38-152 limits assumed): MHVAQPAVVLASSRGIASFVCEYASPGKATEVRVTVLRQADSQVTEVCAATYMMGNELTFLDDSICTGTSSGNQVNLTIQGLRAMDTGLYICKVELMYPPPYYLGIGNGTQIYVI

EC50 (read off the curve) [1] [nM]	Kd [2] [nM]	koff [2] [s⁻¹]	kon [2] [M⁻¹ s⁻¹]	Fold change in IL-2 level induced by bispecific molecule compared to the corresponding combination of the monospecific molecules at 1.5 nM (CTLA-4 (BMS, Orencia) [3]) [fold]	Mean IL-2 level (pg/ml) induced at 1.5 nM (CTLA-4 (BMS, Orencia) [4]) [pg/mL]	Binder
~0.6	1.94	0.000172	88700	7.6	5020	bispecific molecule 1164/1141 (OX40 x CTLA-4) (bispecific antibody) heavy: EVQLLESGGGLVQPGGSLRLSCAASGFTFYGSSMYWVRQAPGKGLEWVSGIYSSGGYTSYADSVKGRFTISRDNSKNTLYLQMNSLRAEDTAVYYCARGVPHGYFDYWGQGTLVTVSS[… human IgG1 constant region …] light: not shown
–	–	–	–	–	2670	bispecific molecule 1542/1141 (OX40 x CTLA-4) (bispecific antibody) heavy: EVQLLESGGGLVQPGGSLRLSCAASGFTFGSSSMYWVRQAPGKGLEWVSGIGYYSYSTSYADSVKGRFTISRDNSKNTLYLQMNSLRAEDTAVYYCARGYPHHYFDYWGQGTLVTVSS[… human IgG1 constant region …] light: not shown
~0.5	1.07	0.000305	284000	7.2	2680	bispecific molecule 1168/1141 (OX40 x CTLA-4) (bispecific antibody) heavy: EVQLLESGGGLVQPGGSLRLSCAASGFTFSGSSMSWVRQAPGKGLEWVSSISYYGGYTYYADSVKGRFTISRDNSKNTLYLQMNSLRAEDTAVYYCARYFPHYYFDYWGQGTLVTVSS[… human IgG1 constant region …] light: not shown
